Source: the antibiotic and cytotoxicity screens of Wong et al. (2023)
This is one part of the list.

System: HSkMC (human skeletal muscle cells)
Assay: cytotoxicity call (relative viability < 0.9)
Conditions: 10 µM

Structure (SMILES)	cytotoxicity call
C[C@@H]1CCCCO[C@@H](CN(C)C(=O)Nc2ccccc2)[C@@H](C)CN([C@@H](C)CO)C(=O)c2cc(NS(=O)(=O)c3ccc(Cl)cc3)ccc2O1	inactive
Cc1ccc(S(=O)(=O)Nc2ccc3c(c2)C(=O)N([C@@H](C)CO)C[C@H](C)[C@H](CN(C)Cc2ccc(C(=O)O)cc2)OCCCC[C@H](C)O3)cc1	inactive
C=CCN(Cc1ccccc1)C(=O)[C@@H]1N(c2c(Cl)cccc2CO)C(=O)[C@@H]2[C@H](C(=O)O)[C@@H]3C=C[C@@]21O3	inactive
Cc1noc(C)c1S(=O)(=O)Nc1ccc2c(c1)CC(=O)N([C@H](C)CO)C[C@H](C)[C@H](CN(C)S(=O)(=O)c1c(C)noc1C)O2	inactive
O=c1c(O)c(O)cc2cccc(O)c(O)c1-2	inactive
C[C@@H]1CN([C@H](C)CO)S(=O)(=O)c2ccc(C#Cc3ccncc3)cc2O[C@H]1CN(C)C(=O)C1CCCCC1	inactive
CC(C)C[C@@](O)(CC(=O)O)C(=O)O	inactive
CC(C)(C)[S@](=O)N1Cc2cc(C(=O)NC3CCCCC3)nc(-c3cccc(Br)c3)c2[C@@H]1CCO	inactive
O=C(C[C@@H]1CC[C@H]2[C@@H](COC[C@@H](O)CN2C(=O)c2ccccc2F)O1)N1CCN(c2ccccc2)CC1	inactive
C[C@H]1CN([C@@H](C)CO)C(=O)CCCn2cc(nn2)CO[C@H]1CN(C)C(=O)c1cc(-c2ccccc2)on1	inactive
Nc1ccc(CCNc2ncnc3c2ncn3[C@@H]2O[C@H](CO)[C@@H](O)[C@H]2O)cc1	inactive
C[C@@H]1CN([C@@H](C)CO)S(=O)(=O)c2ccc(C#Cc3cccnc3)cc2O[C@H]1CN(C)CC1CCCC1	inactive
C[C@@H]1CN([C@H](C)CO)S(=O)(=O)c2ccc(C#CC3CC3)cc2O[C@@H]1CN(C)C(=O)c1cccc(F)c1	inactive
N=C(N)c1ccc(OCCCCCOc2ccc(C(=N)N)cc2)cc1.O=S(=O)(O)CCO.O=S(=O)(O)CCO	inactive
CC(C)NC(=O)N(C)C[C@@H]1Oc2ccc(NC(=O)Nc3ccc4c(c3)OCO4)cc2C(=O)N([C@@H](C)CO)C[C@@H]1C	inactive
CNCc1n[nH]c2c1CCC2	inactive

Structure (SMILES)	cytotoxicity call
C[C@H](CO)N1C[C@H](C)[C@@H](CN(C)C(=O)Nc2cccc(F)c2)Oc2ncc(Br)cc2C1=O	inactive
C[C@H](CO)N1C[C@H](C)[C@H](CN(C)C(=O)Nc2ccc3c(c2)OCCO3)OCc2cnnn2CCCC1=O	inactive
COC(=O)CCCCCCC(=O)N/N=C/[C@H](O)[C@@H](O)[C@H](O[C@@H]1O[C@H](CO)[C@H](O)[C@H](O)[C@H]1O)[C@H](O)CO	inactive
O=C(C[C@H]1CC[C@H]2[C@@H](COC[C@H](O)CN2C(=O)c2cnccn2)O1)NCc1ccc(Oc2ccccc2)cc1	inactive
O=C(Cc1ccncc1)NCC[C@@H]1CC[C@@H](NC(=O)C2CCOCC2)[C@H](CO)O1	inactive
OCCN1C[C@@H](O)[C@@H](O)[C@@H](O)[C@@H]1CO	inactive
CCCC(=O)Nc1ccc2c(c1)C(=O)N(C)C[C@@H](OC)[C@H](C)CN(Cc1ccc(-c3ccccn3)cc1)[C@@H](C)CO2	inactive
C[C@@H]1CN([C@H](C)CO)C(=O)Cc2cc(NS(=O)(=O)c3ccccc3)ccc2O[C@H]1CN(C)CC1CC1	inactive
C[C@@H]1CCCCO[C@H](CN(C)CC2CC2)[C@H](C)CN([C@@H](C)CO)C(=O)c2cc(NC(=O)CCC(F)(F)F)ccc2O1	inactive
Cc1ccc(S(=O)(=O)N(C)C[C@H]2Oc3ccc(NS(=O)(=O)c4c(C)noc4C)cc3CC(=O)N([C@@H](C)CO)C[C@@H]2C)cc1	inactive
C[C@@H]1CCCCO[C@H](CN(C)C(=O)Nc2ccc(F)cc2)[C@H](C)CN([C@@H](C)CO)C(=O)c2cc(NS(=O)(=O)c3ccc(Cl)cc3)ccc2O1	inactive
C[C@@H]1CN([C@@H](C)CO)C(=O)c2cc(NC(=O)C3CCCCC3)ccc2O[C@@H](C)CCCCO[C@H]1CN(C)C(=O)c1ccncc1	inactive
Cc1noc(C)c1S(=O)(=O)Nc1ccc2c(c1)C(=O)N([C@H](C)CO)C[C@H](C)[C@@H](CN(C)CC1CCCCC1)OCCCC[C@H](C)O2	inactive
CC(C)NC(=O)Nc1ccc2c(c1)CC(=O)N([C@@H](C)CO)C[C@@H](C)[C@H](CN(C)C(=O)Nc1ccc3c(c1)OCO3)O2	inactive
Cc1ccc(S(=O)(=O)Nc2ccc3c(c2)C(=O)N([C@@H](C)CO)C[C@@H](C)[C@H](CN(C)Cc2ccc(C(F)(F)F)cc2)O3)cc1	inactive
